Results reported in the supplement of paper PMC9174493.
The other results are listed elsewhere or left out. Single values of this set are uncertain. Values with irradiation are relative to irradiated vehicle.

How the values were obtained:
A549-Dual [1] = test: NF-kB reporter (SEAP) activity, viability-corrected, relative to vehicle (fold change vs vehicle); higher = more activation of STING-IRF / NF-kB immune response reporter
A549-Dual [2] = test: ISRE reporter (Lucia luciferase) activity, viability-corrected, relative to vehicle (fold change vs vehicle); higher = more activation of STING-IRF / NF-kB immune response reporter
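For NF-kB reporter (SEAP) activity, viability-corrected, relative to vehicle in this document: viability correction based on the alamar blue assay, with concentrations leaving 10% survival or less dropped.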

Row | SMILES | NF-kB reporter (A549-Dual [1]; 0.1 µM, irradiation: 8 Gy/4 fr) | NF-kB reporter (A549-Dual [1]; 0.1 µM, irradiation: none) | NF-kB reporter (A549-Dual [1]; 0.3 µM, irradiation: 8 Gy/4 fr) | NF-kB reporter (A549-Dual [1]; 0.3 µM, irradiation: none) | NF-kB reporter (A549-Dual [1]; 1 µM, irradiation: 8 Gy/4 fr) | NF-kB reporter (A549-Dual [1]; 1 µM, irradiation: none) | NF-kB reporter (A549-Dual [1]; 3 µM, irradiation: 8 Gy/4 fr) | NF-kB reporter (A549-Dual [1]; 3 µM, irradiation: none) | NF-kB reporter (A549-Dual [1]; 10 µM, irradiation: 8 Gy/4 fr) | NF-kB reporter (A549-Dual [1]; 10 µM, irradiation: none) | ISRE reporter (A549-Dual [2]; 0.1 µM, irradiation: 8 Gy/4 fr) | ISRE reporter (A549-Dual [2]; 0.1 µM, irradiation: none) | ISRE reporter (A549-Dual [2]; 0.3 µM, irradiation: 8 Gy/4 fr) | ISRE reporter (A549-Dual [2]; 0.3 µM, irradiation: none) | ISRE reporter (A549-Dual [2]; 1 µM, irradiation: 8 Gy/4 fr) | ISRE reporter (A549-Dual [2]; 1 µM, irradiation: none) | ISRE reporter (A549-Dual [2]; 3 µM, irradiation: 8 Gy/4 fr) | ISRE reporter (A549-Dual [2]; 3 µM, irradiation: none) | ISRE reporter (A549-Dual [2]; 10 µM, irradiation: 8 Gy/4 fr) | ISRE reporter (A549-Dual [2]; 10 µM, irradiation: none)
1 | CC/C(=C(/CC)c1ccc(O)cc1)c1ccc(O)cc1 [Diethylstilbestrol] | 0.99 | 1.09 | 1.05 | 0.968 | 0.885 | 1.02 | 1.08 | 0.883 | 1.06 | 1.04 | 1.18 | 1.15 | 1.11 | 1.05 | 0.939 | 1 | 1.17 | 1.07 | 1.25 | 1.37
2 | Cc1ccc(C(=O)Nc2ccc(CN3CCN(C)CC3)c(C(F)(F)F)c2)cc1C#Cc1cnc2cccnn12 | 0.977 | 1.19 | 0.966 | 1.1 | 0.892 | 1.09 | 0.709 | 1.16 | 0.835 | 1.3 | 0.795 | 0.9 | 0.835 | 0.806 | 0.57 | 0.636 | 0.168 | 0.287 | 0.105 | 0.271
3 | CN1CCC(=C2c3ccccc3CCc3sccc32)CC1.O=C(O)CC(O)C(=O)O [Pizotifen Malate] | 0.894 | 1.56 | 1.12 | 1.56 | 1.3 | 1.05 | 1.53 | 1.03 | 0.757 | 0.878 | 1.01 | 0.952 | 0.91 | 1.06 | 0.958 | 1.04 | 1.01 | 1.12 | 1.02 | 1.32
4 | CNS(=O)(=O)CC1CCC(N(C)c2ncnc3[nH]ccc23)CC1.O=C(O)/C=C\C(=O)O (stereo not given) [Oclacitinib?maleate] | 0.988 | 2.42 | 1.37 | 2.08 | 1.73 | 1.39 | 2.07 | 1.23 | 1.4 | 1.05 | 0.653 | 1.88 | 0.939 | 1.04 | 0.522 | 0.742 | 0.45 | 0.421 | 0.183 | 0.337
5 | Cl.O=C1NCC2(CCN(CCc3ccccc3)CC2)O1 [Fenspiride HCl] | 1.11 | 1.19 | 1.27 | 0.729 | 0.995 | 0.801 | 1.09 | 0.751 | 0.566 | 1.19 | 0.979 | 0.744 | 0.967 | 0.756 | 0.638 | 0.67 | 0.632 | 0.777 | 0.157 | 0.486
6 | C#Cc1cccc(Nc2ncnc3cc(OCCOC)c(OCCOC)cc23)c1 [Erlotinib] | 1 | 0.915 | 0.868 | 0.91 | 1.03 | 1.08 | 1.01 | 1.09 | 1.04 | 0.948 | 0.962 | 1.05 | 0.947 | 0.808 | 0.951 | 0.751 | 1.06 | 0.732 | 0.879 | 0.713
7 | COc1cc2c(cc1Cc1cccc(Cl)c1F)c(=O)c(C(=O)O)cn2C(CO)C(C)C (stereo not given) [Elvitegravir (GS-9137, JTK-303)] | 1.14 | 1.09 | 0.933 | 1.28 | 1.2 | 0.979 | 1.48 | 1.13 | 0.966 | 0.926 | 1.15 | 1.1 | 0.897 | 1.08 | 1.09 | 1.02 | 0.901 | 1.69 | 0.939 | 9.03
8 | C=C1c2cccc(O)c2C(=O)C2=C(O)C3(O)C(=O)C(C(N)=O)=C(O)C(N(C)C)C3C(O)C12.Cl (stereo not given) [Methacycline HCl] | 1.17 | 1.09 | 1.05 | 1.25 | 1.29 | 1.51 | 0.751 | 1.34 | 0.471 | 0.914 | 1.15 | 1.41 | 1.05 | 1.08 | 1.19 | 1.42 | 0.596 | 0.829 | 0.326 | 0.655
9 | Nc1nc(=O)c2c(CCc3ccc(C(=O)NC(CCC(=O)[O-])C(=O)[O-])cc3)c[nH]c2[nH]1.[Na+].[Na+] (stereo not given) [Pemetrexed] | 1.22 | 1.52 | 1.27 | 1.78 | 1.27 | 2.14 | 1.3 | 1.66 | 1.11 | 1.36 | 1.28 | 2.69 | 0.981 | 3.05 | 1.26 | 3.2 | 0.999 | 2.3 | 0.794 | 2.21
10 | COc1ccnc(CS(=O)c2nc3ccc(-n4cccc4)cc3[nH]2)c1C (stereo not given) [Ilaprazole] | 1.09 | 1.47 | 1.15 | 1.77 | 1.2 | 1.11 | 1.31 | 1.17 | 1.21 | 1.15 | 1.09 | 1.18 | 0.916 | 1.09 | 1.01 | 0.919 | 0.999 | 1.15 | 0.964 | 1.51
11 | O=C(O)c1cc(-c2ccc(F)cc2F)ccc1O [Diflunisal] | 0.871 | 0.766 | 1.11 | 0.767 | 0.897 | 0.903 | 0.793 | 0.8 | 0.828 | 0.708 | 0.908 | 0.764 | 0.865 | 0.694 | 0.726 | 0.737 | 0.881 | 0.839 | 0.763 | 0.751
12 | CC1(C)OC2CC3C4CCC5=CC(=O)CCC5(C)C4(F)C(O)CC3(C)C2(C(=O)CCl)O1 (stereo not given) [Halcinonide] | 0.827 | 1.58 | 0.921 | 1.58 | 1.63 | 0.84 | 1.37 | 0.946 | 0.909 | 1.27 | 0.0669 | 0.439 | 0.0759 | 0.394 | 0.0693 | 0.232 | 0.0597 | 0.307 | 0.0692 | 0.245
